# From paper PMC4336329 (PLoS ONE, 2015)
# In all, about 310,000 compounds went through this assay and about 14,000 (4.5%) showed an effect of 50% or more. The effect is printed as a negative number. The list shows a part of the results.
# Target: human ether-à-go-go-related gene (hERG) potassium channel (human, UniProt Q12809)
# Experiment: primary screen, population patch clamp on CHO cells stably expressing hERG
# 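Further: peak tail current of the secondary pulse compared with the same well before compound.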
# Sequence of human ether-à-go-go-related gene (hERG) potassium channel (Q12809 whole entry, looked up): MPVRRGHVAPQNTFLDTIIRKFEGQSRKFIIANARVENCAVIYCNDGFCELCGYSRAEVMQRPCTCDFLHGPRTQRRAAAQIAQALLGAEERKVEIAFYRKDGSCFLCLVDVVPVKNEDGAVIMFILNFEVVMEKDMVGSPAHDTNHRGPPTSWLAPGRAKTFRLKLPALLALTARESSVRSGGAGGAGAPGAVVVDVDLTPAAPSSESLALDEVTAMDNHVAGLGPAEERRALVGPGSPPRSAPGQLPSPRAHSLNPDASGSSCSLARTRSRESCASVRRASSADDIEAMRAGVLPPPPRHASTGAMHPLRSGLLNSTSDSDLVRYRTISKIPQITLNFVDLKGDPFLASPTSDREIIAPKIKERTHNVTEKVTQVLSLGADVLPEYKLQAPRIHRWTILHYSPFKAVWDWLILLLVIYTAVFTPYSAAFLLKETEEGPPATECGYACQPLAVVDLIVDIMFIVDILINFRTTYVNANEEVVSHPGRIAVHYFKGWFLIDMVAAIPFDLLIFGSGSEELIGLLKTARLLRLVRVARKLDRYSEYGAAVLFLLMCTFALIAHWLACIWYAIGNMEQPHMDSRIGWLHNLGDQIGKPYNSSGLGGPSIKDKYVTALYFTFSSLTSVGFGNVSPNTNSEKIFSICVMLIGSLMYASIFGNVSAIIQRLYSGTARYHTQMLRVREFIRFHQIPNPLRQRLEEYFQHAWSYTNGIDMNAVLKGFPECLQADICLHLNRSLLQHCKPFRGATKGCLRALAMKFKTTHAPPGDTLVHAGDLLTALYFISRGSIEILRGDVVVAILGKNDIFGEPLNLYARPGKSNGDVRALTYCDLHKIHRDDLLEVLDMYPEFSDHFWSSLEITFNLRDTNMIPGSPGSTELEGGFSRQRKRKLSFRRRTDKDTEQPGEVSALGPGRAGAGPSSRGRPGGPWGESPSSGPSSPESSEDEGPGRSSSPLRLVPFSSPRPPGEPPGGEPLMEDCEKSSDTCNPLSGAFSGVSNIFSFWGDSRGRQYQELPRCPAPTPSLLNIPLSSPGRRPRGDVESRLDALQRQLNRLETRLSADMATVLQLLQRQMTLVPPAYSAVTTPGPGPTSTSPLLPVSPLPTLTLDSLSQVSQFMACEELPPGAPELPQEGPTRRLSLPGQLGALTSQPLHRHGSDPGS
row,SMILES,"hERG current change (%, negative = inhibition) at 10uM [%]"
1,COc1ccccc1CNC(=O)C1=CCN(S(=O)(=O)c2ccc(C)cc2)CC1,-28.4
2,COc1ccc(NC(=O)CSc2nnc(-c3cccc(O)c3)o2)cc1,19.2
3,C=CCOC(=O)C1=C(C)N=c2s/c(=C3\C(=O)N(CC(=O)O)c4ccccc43)c(=O)n2C1c1ccc(OC)cc1.CC(=O)O (centres unmarked),10.4
4,O=C(N/N=C/c1ccc(N2CCOCC2)c([N+](=O)[O-])c1)c1ccc(F)cc1,-15.9
5,COc1cc(NC(=O)c2ccc([N+](=O)[O-])cc2)c(OC)cc1NC(=O)CC(C)C,21
6,COc1cc(NC(=O)CN(C)S(=O)(=O)c2ccc3c(c2)CCC(=O)N3)cc(OC)c1,-23.9
7,O=C(Nc1ccc(C(F)(F)F)cc1)c1cc(S(=O)(=O)NCC2COc3ccccc3O2)ccc1F (centres unmarked),-3.83
8,COC(=O)N/N=C/c1cc(Br)ccc1O,5.22
9,O=C(O)c1ccccc1Sc1ncnc2sccc12,9.7
10,CCOc1cc(C2NC(=O)CCC2[N+](=O)[O-])cc(Br)c1OC (centres unmarked),0.144
11,CN(Cc1ccncn1)C(=O)CC1C(=O)NCCN1Cc1cccc(Oc2ccccc2)c1 (centres unmarked),10.2
12,O=C1C2C3C=CC(C2C(=O)N1C1CCCCC1)C1C2C(=O)N(C4CCCCC4)C(=O)C2C31 (centres unmarked),-9.75
13,COc1cccc(-c2nn(C)c3sc(C(=O)N4CCOCC4)cc23)c1,-6.02
14,N#Cc1sc2nc(-c3cccs3)cc(-c3ccc(Cl)cc3)c2c1N,-2.05
15,CCCc1nnc(NC(=O)CCC(=O)N2CCN(c3ccccc3)CC2)s1,-26.7
16,COc1cc(C(N)=O)cc(Cl)c1OC,45.2
17,C[C@@H](C(=O)Nc1ccc2ccccc2c1)[C@H]1C[C@]1(C)[C@H](NC(=O)c1cccnc1)c1ccccc1,-12.9
18,N=c1c2c(ncn1Cc1ccco1)Oc1ccc3ccccc3c1C2c1ccccc1 (centres unmarked),-6.08
19,CCc1c(C)sc(NC(=O)c2cccs2)c1C(=O)OC(C)C,2.8
20,COc1cccc(C(=O)N(C)C(C)c2nc3ccccc3s2)c1 (centres unmarked),-3.31
21,Cc1cc(C)c2cccc(N)c2n1,20.7
22,CCCCNS(=O)(=O)c1ccc2nc(-c3cccnc3)cc(C(=O)NCCCN(CC)CC)c2c1,-7.3
23,O=C(COC(=O)c1ccc(Cl)c(S(=O)(=O)N2CCOCC2)c1)Nc1ccc2[nH]c(=O)[nH]c2c1,5.41

row,SMILES,"hERG current change (%, negative = inhibition) at 10uM [%]"
1,COC(=O)C1(C)NC(c2cccs2)C2C(=O)N(c3ccc(F)cc3)C(=O)C21 (centres unmarked),19
2,O=C1CC(NCc2ccccc2F)C(=O)N1c1ccccc1 (centres unmarked),4.69
3,c1ccc(-c2ccc(-c3ccncn3)cc2)cc1,23.6
4,CCn1c(Cc2c(C)[nH]c3ccccc23)n[nH]c1=S,-17.8
5,Cc1ccc(C(=O)NCC(=O)OCCCn2c(=O)[nH]c3ccccc32)cc1,-14.8
6,Br.CCn1c(=N)n(CC(=O)c2ccc(Cl)c(Cl)c2)c2ccccc21,-51.4
7,O=C(Oc1ccc(Cl)cc1N1C(=O)CCC1=O)c1ccco1,7.9
8,Cc1ccc(NS(=O)(=O)c2ccc(C(=O)OCC(=O)N3CCCCC3)cc2)cc1,-28.4
9,O=C(Cc1ccc(F)cc1)NCc1cccnc1,9.56
10,Clc1nc(-c2ccccc2)cc(-c2ccccc2)n1,5.42
11,COCCn1c(=O)[nH]c2cc(C(=O)NC(C)C)ccc2c1=O,22.8
12,C=C(C)Cn1cnc2c(oc3nc4c(cc32)CCCC4)c1=O,-6.04
13,C=CC(=O)NC(C)(C)CCN1CCOCC1,16.7
14,O=C1N/C(=N/O)S/C1=C/c1cccc([N+](=O)[O-])c1,20.4
15,Cc1ccc(NC(=O)CCNS(=O)(=O)c2cccc3nsnc23)cc1F,-3.43
16,CC(=O)c1c(C)n(-c2cccc(Cl)c2)c2ccc(O)cc12,1.33
17,CC1CC(=O)Nc2ccccc2N1C(=O)COc1ccc2cc(Br)ccc2c1 (centres unmarked),0.55
18,CC(=O)N1C(=O)C2(C(C#N)=C(N)Oc3n[nH]c(-c4ccccn4)c32)c2ccccc21 (centres unmarked),4.71
19,Br.Cc1ccc(C(=O)CN(Cc2ccccc2)C2=NCCS2)cc1,-27.3
20,COc1ccccc1OCc1ccc(C(=O)NCCN(C)C)o1,0.382
21,COc1ccc(CN2CCOCC2)cc1Br,-12
22,COc1cc(C)c(CN2CCCCC2CO)cc1C (centres unmarked),-0.531
23,O=S(Cc1ccc(Cl)cc1)CC(O)COCc1ccc(Cl)cc1 (centres unmarked),-4.9

row,SMILES,"hERG current change (%, negative = inhibition) at 10uM [%]"
1,Cc1ccc(NC(=O)COc2ccc(CCO)cc2-n2nc3ccccc3n2)cc1C,6.89
2,COc1ccc2nc3oc(C(=O)NCc4cccs4)cc3cc2c1,-8.02
3,CN(/N=C/c1ccncc1)C1=NS(=O)(=O)c2ccccc21,2.63
4,CCn1c(O)c(C=NC2CCCC(C)C2C)sc1=S (centres unmarked),27.4
5,CCn1c(SCC(=O)Nc2ccccc2C(=O)OC)nnc1-c1ccoc1C,-42.4
6,Cc1ccc(CNC(=O)c2cc3c(-c4ccc(Cl)cc4)nn(C)c3s2)o1,-8.27
7,CN(CC(=O)NCc1cccnc1)S(=O)(=O)c1cc(Cl)ccc1Cl,-15.2
8,CCn1cc(S(=O)(=O)Nc2ccc(C)c(Cl)c2)cn1,-12.5
9,CN1CCN(C(=O)/C=C/c2cn(-c3ccccc3)nc2-c2ccc3c(c2)OCCO3)CC1.Cl,-31
10,O=C(O)c1ccccc1-n1c2ccccc2c2ccccc21,19
11,O=C(NC(NC(=S)Nc1ccc(Cl)c(Cl)c1)C(Cl)(Cl)Cl)c1ccco1 (centres unmarked),8.12
12,CCN(Cc1cnn(C)c1)C(=O)C1CCC(=O)N(CCc2ccc(OC)cc2)C1 (centres unmarked),14.6
13,O=C(Cn1cc(C(F)(F)F)cc(Cl)c1=O)NCc1ccc(Cl)cc1Cl,5.16
14,Cc1nn(Cc2ccccc2)c(Cl)c1/C=C/C(=O)OCC(=O)N1CCCC1=O,-9.13
15,Cc1ccc(C(=O)O/N=C(\N)Cc2cccc3ccccc23)cc1,20.9
16,COc1cc2c(C(=O)N3CCN(c4cccc(Cl)c4)CC3)cn(C)c(=O)c2cc1OC,-53.1
17,O=S(=O)(c1ccccc1)N1CCN=C1SCc1ccccc1Cl,-8.53
18,Cc1ccccc1OCCC(=O)N1CCN(S(=O)(=O)c2ccc(Cl)cc2)CC1,-23.9
19,COc1cc(C)c(S(=O)(=O)N2CCCC2)cc1C,10.4
20,CC(C(=O)NCc1ccco1)c1ccc([N+](=O)[O-])cc1 (centres unmarked),-2.02
21,CCCCn1nc(NC(=O)COC)c2cc3ccc(C)cc3nc21,-14.7
22,COc1cc(C2C(C(C)=O)=C(C)Nc3ncnn32)ccc1O (centres unmarked),5.74
23,Cc1nnc(NC(=O)CSc2nnc(CC(=O)Nc3ccccc3C)n2C)s1,25.9

row,SMILES,"hERG current change (%, negative = inhibition) at 10uM [%]"
1,CC(C)=CC(=O)Nc1nnc(C(C)C)s1,1.44
2,CCn1cc(CCCC(=O)NCc2cccnc2)c2ccccc21,-4.69
3,O=C(O)CC1(CC(=O)Nc2ccc3sccc3c2)CCCCC1,15.6
4,Cc1cccc2cc3c(NC(=O)C(C)C)nn(C)c3nc12,16.9
5,COc1ccc(CCn2c(C)cc(C(=O)COC(=O)c3ccc(NC(=O)CC#N)cc3)c2C)cc1,-2.55
6,CCN(CC)CCNC(=O)c1[nH]c2ccc(OCc3ccccc3)cc2c1C,-74.6
7,CCOC(=O)C1CCN(CCC(=O)Nc2ccc(F)cc2)CC1,-31
8,Cc1cccc(S(=O)(=O)NCCc2cn3ccccc3n2)c1,5.55
9,CCCCCc1ccc(S(=O)(=O)NCCc2ccncc2)cc1,-30.2
10,Cc1ccc(-c2nnn(CCC(=O)NC3CCCC3)n2)cc1,-1.61
11,O=C(COc1ccc2cc(-c3ccccc3)c(=O)oc2c1)NCC1CCC(C(=O)O)CC1 (centres unmarked),13.1
12,CCc1c(C)c2ccc(OC3CCCCC3=O)cc2oc1=O (centres unmarked),15.5
13,O=C1Nc2ccccc2C1C(C[N+](=O)[O-])c1ccccc1 (centres unmarked),6.45
14,CCN(CC)c1ccc(N)cc1S(=O)(=O)Nc1ccccc1OC,6.89
15,CC(=O)N1CC(C)Sc2ccc(S(=O)(=O)NCc3ccc(Cl)cc3)cc21 (centres unmarked),-37.8
16,Cc1sc(NC(=O)C2CC(Cl)=CCC2C(=O)O)c(C#N)c1C (centres unmarked),16
17,N#CCCNC(=O)CCN1CCCCC1,0.152
18,C=CCNC(=O)c1onc(CSc2ccc(Cl)cc2)c1C(=O)O,15.2
19,O=C(Nc1ccc(Cl)cc1)OCc1cc(-c2ccccc2Cl)on1,7.51
20,Cc1cccc(N2CCN(C(=O)CN3C(=O)NC(C)(C)C3=O)CC2)c1C,2.51
